Experimental data reported in the RNAGym collection of RNA variant scans (doi:10.1093/nar/gkz1192).
The source gives no read counts; variants with many changes may rest on few reads.

B1: CPEB3 Ribozyme (parent)
chain: UAACAGGGGGCCACAGCAGAAGCGUUCACGUCGCAGCCCCUGUCAGAUUCUGGUGAAUCUGCGAAUUCUGCUGUAUAUCUC

Variants of: B1
Assay: self-cleavage, relative activity (ratio to wild type); higher = more cleavage; in vitro, sequencing
How it was run: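 Relative activity compares each variant's cleaved/total read fraction with that of the unmutated ribozyme. To get these fractions, barcoded CPEB3 ribozyme libraries from rounds of error-prone PCR were transcribed with T7 RNA polymerase for 5 hours at 37°C and then given 15 min of DNase I treatment before EDTA was added. The RNAs were reverse transcribed with template switching and sequenced on Illumina, and DNA sequencing linked barcodes to variants. A minimum of 5 reads applied, and three batches were averaged.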

Row | Variant | self-cleavage
1 | C12U G63U A77G | 1.24
2 | C12U U25A A47G G53A A75G | 0.2
3 | C12U U25C A47C | 0.32
4 | C12U U25C A47U A56G U69A | 0.12
5 | C12U U25C A56G | 0.2
6 | C12U U25C A56G C68A | 0.08
7 | C12U U25C A56U | 0.11
8 | C12U U25C A57G U80C | 0.3
9 | C12U U25C U41C U67C U78C | 0.08
10 | C12U U25G C37U A64U | 0.13
11 | C12U U26A A47G | 1.15
12 | C12U U26C A28U U41C | 0.3
13 | C12U U26C A28U U80C | 0.39
14 | C12U U26C A45G | 0.36
15 | C12U U26C A57G | 0.57
16 | C12U U26C C32G U43C A45G | 0.16
17 | C12U U26C U41A U48C A57G | 0.14
18 | C12U U26C U41C U43C A64U | 0.26
19 | C12U U26C U72A | 0.16
20 | C12U U26C U76C A77U | 0.92
21 | C12U U31A A47G A57G U80C | 0.35

Row | Variant | self-cleavage
22 | C12U U31A U43A | 0.87
23 | C12U U31C C38G A56G U66A U72C U80C | 0.04
24 | C12U U31C C44A U60C U67A | 0.11
25 | C12U U31C G52A U72C | 0.49
26 | C12U U31C U41A A65G | 0.07
27 | C12U U31G U41G U48C U51A U54A | 0.05
28 | C12U U41A C44U A57C U76A U80A | 0.02
29 | C12U U41C A45G A47U U48C U78A | 0.09
30 | C12U U41C U51A U58C U72C | 0.96
31 | C12U U41C U51A U66C U72C | 1.09
32 | C12U U43A U54A | 1.29
33 | C12U U48A U54A U72C | 0.86
34 | C12U U48A U74C | 1.12
35 | C12U U48C U51A C62U | 0.39
36 | C12U U48C U74A | 1.18
37 | C12U U49A U78A | 0.89
38 | C12U U49C U69C | 0.2
39 | C12U U51C A65G U72A | 0.91
40 | C12U U51C A65U | 0.26
41 | C12U U54A U58C U60C A64G | 0.28
42 | C12U U54C U72A | 1.27

Row | Variant | self-cleavage
43 | C12U U54G U78C | 1.13
44 | C12U U60C A64U A65G U66C | 0.46
45 | C12U U78C U80C | 0.94
46 | A13C A15C A57G | 0.47
47 | A13C A15G A56G | 0.66
48 | A13C A15G C68G A75U | 0.08
49 | A13C A15G G16U U72A | 0.21
50 | A13C A15G U41G | 0.23
51 | A13C A15U A20U U80A | 0.14
52 | A13C A15U G24C A35G C39A U69A | 0.2
53 | A13C A18G C44U | 0.09
54 | A13C A18G U25A | 0.26
55 | A13C A18G U41C A56G U67C | 0.42
56 | A13C A18G U41C U51C A56G U72C | 0.2
57 | A13C A18G U43C U78G | 0.39
58 | A13C A18G U69A U78C | 0.53
59 | A13C A18U C27U U58C U60C | 0.09
60 | A13C A18U U25A U26A U48C U60C | 0.11
61 | A13C A18U U60A U72C | 0.19
62 | A13C A20G A45G | 0.51
63 | A13C A20U A35G U74C | 0.98

Row | Variant | self-cleavage
64 | A13C A20U C39A U67C U74A | 0.07
65 | A13C A21G A57G A64U U76C | 0.12
66 | A13C A21G C23G U25C G30A | 0.15
67 | A13C A21G C50A U51C U78C | 0.48
68 | A13C A21G U25A U26C U60C | 0.1
69 | A13C A21G U25C U31A G70C | 0.11
70 | A13C A21G U41A A65G | 0.15
71 | A13C A21G U41A A65G U80A | 0.04
72 | A13C A21G U41C U49C A56G U69C U78A | 0.19
73 | A13C A28C U58C | 0.27
74 | A13C A28G A45U | 0.21
75 | A13C A28G C39U U76A U80C | 0.37
76 | A13C A28G G63A A65G U69A | 0.15
77 | A13C A28U A35G U41C U54A U60C | 0.57
78 | A13C A28U A56G | 0.67
79 | A13C A35G A45U G61U C79U | 0.95
80 | A13C A35G U43C | 0.78
81 | A13C A35G U54C | 1.28
82 | A13C A35U A47G U80C | 0.97
83 | A13C A35U A65C U74A | 0.18
84 | A13C A35U U41C U60A | 0.26
